Data: PubChem BioAssay AID485344 (National Center for Advancing Translational Sciences (NCATS), 2010)
The whole screen tested about 340,000 compounds, of which about 6,900 (2%) were called active. Rule as the data show it: active = inhibition above about 30%; inactive = below that, where a call was filed. The entries are a selection whose mix differs from that of the whole data set. Entries without a call were filed so in the source.

Each molecule was assayed against D(2) dopamine receptor (Homo sapiens) (UniProt P14416) (assay: HTS Assay for Allosteric Antagonists of the Human D2 Dopamine Receptor: Primary Screen for Antagonists). Details: HEK293 TREx D2 cells, calcium flux, dopamine EC80; at 10 µM; stronger effect = higher value.
Method in brief: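 Overnight-induced (tetracycline, 30 C) HEK293 T-REx cells carrying force-coupled D2 receive a no-wash calcium dye, then compound, then EC80 dopamine at 180 s; signals are read kinetically throughout.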
Also: 0% is about no effect.

Sequence of UniProt P14416 (P14416 whole entry, looked up): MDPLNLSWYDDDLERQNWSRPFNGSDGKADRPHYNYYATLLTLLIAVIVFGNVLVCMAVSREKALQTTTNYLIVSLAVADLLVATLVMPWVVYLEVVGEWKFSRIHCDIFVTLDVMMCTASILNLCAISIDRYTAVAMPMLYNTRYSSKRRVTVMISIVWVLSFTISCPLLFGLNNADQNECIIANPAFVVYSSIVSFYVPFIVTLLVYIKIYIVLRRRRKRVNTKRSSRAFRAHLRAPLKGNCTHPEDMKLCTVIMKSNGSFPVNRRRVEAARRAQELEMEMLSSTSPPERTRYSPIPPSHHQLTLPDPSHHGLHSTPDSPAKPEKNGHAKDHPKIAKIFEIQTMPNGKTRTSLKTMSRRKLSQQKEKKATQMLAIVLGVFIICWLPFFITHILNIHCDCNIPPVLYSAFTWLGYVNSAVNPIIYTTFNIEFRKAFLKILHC

| Compound | inhibition |
| --- | --- |
| COc1ccc(C(=O)CSc2nc3cc(C(=O)NC4CCCC4)ccc3c(=O)n2CC2CCCO2)cc1 (stereo not given) | 3.46% |
| Cc1ccccc1NC(=O)Nc1csc2c1CCCC2 | -20.5% |
| CCOc1ccc(CN2C(=O)c3ccccc3Sc3ccc(C(=O)NCc4ccc5c(c4)OCO5)cc32)cc1 | -13.2% |
| Cc1cccc(C(=O)N2CCNC(=O)C2CC(=O)Nc2ccc(F)cc2)c1 (stereo not given) | -6.77% |
| COc1ccc(C)cc1NC(=O)C(NS(=O)(=O)c1cccs1)c1ccccc1 (stereo not given) | -2.58% |
| COC(=O)c1cc2oc3ccccc3c2n1CC(=O)Nc1cccc(SC)c1 | -12.4% |
| COc1ccc(C2C(C(=O)Nc3ccccc3)=C(C)Nc3nc(-c4ccccc4)nn32)c(OC)c1 (stereo not given) | -5.89% |
| Cc1cccc(NC(=O)Cn2c(=O)n(CCc3ccccc3)c(=O)c3ccccc32)c1 | -0.928% |
| COc1cc(OC)c(NC(=O)Cc2c(C(=O)O)c(C)cn2C)cc1Cl | 26.8% |
| CC(=O)N1CCCC1c1nc2ccccc2n1Cc1c(F)cccc1Cl (stereo not given) | 11.2% |
| CCc1ccc(OCC(=O)Nc2ccc(S(=O)(=O)Nc3onc(C)c3C)cc2)cc1 | -0.676% |
| COc1ccc(OC2CCN(S(=O)(=O)c3cccc(F)c3)CC2)cc1 | -9.73% |
| CCCCn1c(=O)c2oc3ccccc3c2n(CC(=O)Nc2cc(C)ccc2C)c1=O | -20.6% |
| Cc1ccc(CNC(=O)Cc2c(C(=O)O)c(C)cn2C)cc1 | 13.2% |
| Cc1nc2ccn(Cc3cccnc3)c(=O)c2cc1C(=O)NCc1ccccc1 | -1.88% |
| O=C(CSc1nnc(-c2ccccc2Br)n1-c1ccccc1)c1ccc(F)cc1 | 2.71% |
| O=C(NC1CCCC1)c1ccc(CSc2nc3cccnc3n2Cc2cccc(F)c2)cc1 | 0.881% |
| O=c1[nH]c(SCc2ccccc2)nc2c1CCCC2 | -4.74% |
| COC(=O)c1ccc(OCC2c3cc(OC)c(OC)cc3CCN2C(=O)c2ccc(OC)cc2)cc1 (stereo not given) | 3.26% |
| COc1cc(OC)c(NC(=O)NCCn2nnc3cc(S(=O)(=O)N(C)C)ccc32)cc1Cl | 5.84% |
| COc1ccc(-c2nn3c(=O)cc(CN4CCN(C(=O)Nc5cc(C)ccc5C)CC4)nc3s2)cc1 | -13.3% |
| CCCCSCCCNC(=O)C1CCN(Cc2nc(-c3ccc(CC)cc3)oc2C)CC1 | -14% |
| Cc1cccc(N2CCN(C(=O)c3sc4nc5n(c(=O)c4c3C)CCC5)CC2C)c1 (stereo not given) | -18.5% |
| CCOc1ccc(CCNC(=O)C(CC)n2nc(C)c3c(C)n(-c4ccccc4)nc3c2=O)cc1 (stereo not given) | -9.41% |

| Compound | inhibition |
| --- | --- |
| Cc1cc(-c2ccc(S(=O)(=O)Nc3cccc(C)c3C)s2)on1 | -1.26% |
| O=C(NCC1CCCO1)c1cc2c([nH]c3ccccc32)c(-c2cccc(Br)c2)n1 (stereo not given) | active: 33.8% |
| CCOC(=O)c1c(C)[nH]c(C)c1S(=O)(=O)N1CCC(C(=O)NCc2ccc(F)cc2)CC1 | 2.83% |
| COc1ccc(-c2c(C#N)c(SCC(=O)Nc3ccc(C)c(C)c3)nc(C)c2C(=O)Nc2ccc(Cl)cc2)cc1 | 0.482% |
| Cc1nc2sccn2c(=O)c1S(=O)(=O)Nc1ccc(N2CCN(C)CC2)cc1 | 14.3% |
| Clc1ccc2nc(C3CCN(Cc4ccccc4)CC3)[nH]c2c1 | active: 52.5% |
| Cc1oc(-c2ccccc2Cl)nc1CS(=O)CC(=O)N1CCN(c2cccc(C(F)(F)F)c2)CC1 (stereo not given) | 11.4% |
| CC(=O)c1ccc(N2CCN(C(=O)CN3C(=O)NC4(CCCCC4)C3=O)CC2)c(F)c1 | active: 30.7% |
| CCOc1ccccc1CNC(=O)c1ccc2c(c1)N(CC)CCS2 | -8.82% |
| COc1cccc(CNC(=O)C(Cc2ccccc2)NS(=O)(=O)c2ccc3c(c2)CCN3C(C)=O)c1 (stereo not given) | -5.37% |
| CCOc1cc2c(cc1OCC)C(CC(=O)OC)N(C(=O)Nc1cc(C)cc(C)c1)CC2 (stereo not given) | 2.1% |
| O=C(/C=C/c1ccco1)N1CCCC(c2ccccc2)C1 (stereo not given) | active: 55.8% |
| Cc1ccc(NC(=O)CCc2nc(-c3ccccc3F)no2)c(C)c1 | -15% |
| COc1cc(C(=O)Nc2sc3c(c2C#N)CCCC3)c(Br)c(OC)c1OC | 4.65% |
| CS(=O)(=O)c1ncc(Cl)c(C(=O)N(Cc2ccc(Cl)cc2)Cc2ccco2)n1 | -19.8% |
| Cc1cc(OCCCCCN2CCCC2)ccc1Cl | active: 58.8% |
| Cc1ccc(-c2noc(-c3nnn(CC(=O)Nc4ccc(C)cc4Cl)c3N)n2)cc1 | 2.89% |
| Cc1cc(C)cc(NS(=O)(=O)c2ccc3[nH]cc(C(=O)N4CCCCC4)c(=O)c3c2)c1 | -0.69% |
| O=C(COCc1cc(-c2ccc3c(c2)OCO3)on1)N1CCCCC1 | active: 77.7% |
| Cc1noc(-c2ccc(N3CCCCC3C)c([N+](=O)[O-])c2)n1 (stereo not given) | -9.45% |
| COc1cc(Cl)c(C)cc1NC(=O)c1c(C)oc2nc(C)nc(N3CCCC3)c12 | 0.28% |
| CCc1nnc(NC(=O)CSc2nccn2Cc2ccccc2)s1 | -3.77% |
| O=C1CCCc2cc(S(=O)(=O)N3CCCC(C(=O)NCc4ccccc4Cl)C3)ccc2N1 (stereo not given) | 8.58% |
| COc1ccc(CCNS(=O)(=O)c2cc3c4c(c2)CC(=O)N4CCC3)cc1 | active: 34.7% |

| Compound | inhibition |
| --- | --- |
| Cn1c(CCCOc2ccc(Cl)cc2Cl)nnc1SCC(=O)Nc1nccs1 | active: 31.9% |
| CC(C)CCNC(=O)c1c[nH]c2ccc(S(=O)(=O)Nc3cccc(C(F)(F)F)c3)cc2c1=O | 13% |
| COc1ccccc1CNC(=O)C1CCN(c2ncnc3c2nc2n3CCCCC2)CC1 | 9.14% |
| CCc1ccc(-n2c3nc(=O)[nH]c(=O)c-3cc3c(C)nn(-c4ccccc4)c32)cc1 | 14.3% |
| CCc1ccc(NC(=O)Cn2cnc3nc4c(cc3c2=O)CCCC4)cc1 | -24.1% |
| CCOC(=O)c1cc2c(=O)n3ccccc3nc2n(CC(C)C)c1=NC(=O)C(C)(C)Oc1ccc(Cl)cc1 | 2.37% |
| Cc1ccc(C(=O)N2CC(=O)Nc3ccc(Br)cc3C2c2ccc(F)cc2)cc1C (stereo not given) | -9.44% |
| CCOC(=O)N1CCN(C/C(C)=C/c2ccccc2)CC1 | active: 63.4% |
| COc1ccc(CNC(=O)Cc2c(C)c3c(O)cc(C)cc3oc2=O)cc1 | -2.62% |
| CCN1CCN(C(=O)Cn2c(-c3cccs3)cc3cc(Cl)ccc32)CC1 | 5.05% |
| Cc1ccc(C)c(N2CCN(C(=O)CCc3c(C)nc4c(c3C)c(=O)n(C)c(=O)n4C)CC2)c1 | 15.9% |
| COc1ccccc1CNC(=O)c1cc(S(=O)(=O)N2CCCC2)cn1C | active: 36.6% |
| CC1CCc2onc(C(=O)N3CCN(c4ccc(Cl)cc4)CC3)c2C1 (stereo not given) | 9.7% |
| Cc1ccc(Cn2ccn(Cc3ccc(C)cc3)c(=O)c2=O)cc1 | 0.0734% |
| COc1cccc(OC)c1C(=O)OCC(=O)N1CC(C)CC(C)C1 (stereo not given) | active: 32% |
| COc1ccc(N2C(=O)NC(NS(=O)(=O)c3ccc(NC(C)=O)cc3)(C(F)(F)F)C2=O)cc1 (stereo not given) | -13% |
| CCOc1ccc(CNC(=O)CCCn2nc(C)c3c(C)n(-c4ccc(C)cc4)nc3c2=O)cc1 | -6.91% |
| CCc1c(C)sc2c1CCN(C(=O)Nc1ccccc1Cl)C2c1ccc(OC)cc1 (stereo not given) | 2.57% |
| Cc1cc(-n2c(SCc3ccccc3F)nc3[nH]ncc3c2=O)ccc1Cl | -12.5% |
| Cc1ccc(-c2noc(-c3ccc(NC4CCCC4)c([N+](=O)[O-])c3)n2)cc1 | 2.09% |
| Cc1cc(Cl)ccc1NC(=O)C1CCCN1S(=O)(=O)c1ccc2c(c1)CCCC(=O)N2 (stereo not given) | 12.3% |
| CS(=O)(=O)c1ncc(N(Cc2ccco2)Cc2cccs2)c(C(=O)Nc2ccccc2F)n1 | -20% |
| CC(C)(C)OC(=O)N1CCC(c2nnc(SCc3ccccc3Cl)o2)CC1 | 23.3% |
| CCC(=O)Nc1ccc(C)cc1-c1nc2ccccc2n(CC(=O)c2ccc(C)cc2)c1=O | 11.9% |

| Compound | inhibition |
| --- | --- |
| CCCCNC(=O)Cn1c(=O)cc(C)c2c(C)nn(-c3cccc(Cl)c3C)c21 | 18.4% |
| Cc1noc2ncnc(N3CCCC(C(=O)Nc4cc(F)ccc4F)C3)c12 (stereo not given) | -2.94% |
| COc1ccccc1NC(=O)C1=C(C)Nc2nc(-c3ccco3)nn2C1c1cccc(C)c1 (stereo not given) | -12.2% |
| CCOC(=O)c1c(C)c(C(=O)NCc2ccc(Cl)cc2)c(C)n1C | -20.5% |
| CCc1ccc(-n2c(=O)c3c(C)c(C(=O)N(C)C)sc3n(CC(=O)Nc3cc(Cl)ccc3C)c2=O)cc1 | 13.1% |
| CC(CNc1nc2ccccc2c2nc(-c3ccccc3)nn12)c1ccccc1 (stereo not given) | 14.4% |
| COc1ccc(NC(=O)c2cc3c(=O)n(C)c4cc(Cl)ccc4c3s2)cc1Cl | -4.11% |
| CC(=O)Nc1cccc(NC(=O)CSc2cn(CC(=O)N3CCCC3)c3ccccc23)c1 | 12% |
| CCCS(=O)(=O)c1nc(S(=O)(=O)c2ccc(C)cc2)c(NCC(C)C)s1 | -5.65% |
| CC1CCN(S(=O)(=O)c2ccc3c(ccc(=O)n3CC(=O)NCc3ccccc3)c2)CC1 | 23.9% |
| Cc1ccc(CCNC(=O)c2oc(=O)c3ccccc3c2-c2ccc(C)cc2)cc1 | 5.02% |
| CCOC(=O)c1c(-c2ccc(Br)cc2)csc1NC(=O)c1ccc(C(C)(C)C)cc1 | 9.17% |
| Cc1ccc(CNC(=O)c2cc(=O)c3cc(C)c(C)cc3o2)cc1 | -18.4% |
| CC1CCCCN1Cc1c(O)ccc2c(=O)c(-c3ccc(Cl)cc3)coc12 (stereo not given) | 1.02% |
| COc1ccc(CNC(=O)C2CCCN(C(=O)c3cnn(-c4ccc(F)cc4)c3-n3cccc3)C2)cc1 (stereo not given) | -0.845% |
| O=C(NCCS(=O)(=O)N1CCN(c2ccc(F)cc2)CC1)c1ccccc1Br | 13% |
| CCOc1ccc(CC(=O)NCCc2sc(-c3cccc(F)c3)nc2C)cc1 | -27.5% |
| COc1ccc(NC(=O)c2cc(=O)c3cc(C)cc(C)c3o2)cc1 | -13.8% |
| Cc1nc2c(-c3ccccc3)c(C)[nH]n2c(=O)c1Cc1ccc(Br)cc1 | -11.7% |
| CCOc1cccc2sc(NC(=O)c3ccc(S(=O)(=O)N4CCCCC4)cc3)nc12 | 7.33% |
| Cc1ccccc1OCC(=O)Nc1ccc2[nH]c(=O)sc2c1 | -8.82% |
| COc1ccc(CCNC(=O)c2nc(SCc3ccc(F)cc3)ncc2Cl)cc1OC | 1.48% |
| CCCCCCC(=O)Nc1cc2nc3c(nc2cc1C)c(=O)n(C)c(=O)n3C | 10.8% |
